The whole screen tested about 310,000 compounds, of which about 14,000 (4.5%) showed an effect of 50% or more. The effect is printed as a negative number. The list shows a part of the results.
Each compound was assayed against human ether-à-go-go-related gene (hERG) potassium channel (human, UniProt Q12809) (assay: primary screen, population patch clamp on CHO cells stably expressing hERG).
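Note: peak tail current of the secondary pulse compared with the same well before compound.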

human ether-à-go-go-related gene (hERG) potassium channel, sequence (Q12809 whole entry, looked up): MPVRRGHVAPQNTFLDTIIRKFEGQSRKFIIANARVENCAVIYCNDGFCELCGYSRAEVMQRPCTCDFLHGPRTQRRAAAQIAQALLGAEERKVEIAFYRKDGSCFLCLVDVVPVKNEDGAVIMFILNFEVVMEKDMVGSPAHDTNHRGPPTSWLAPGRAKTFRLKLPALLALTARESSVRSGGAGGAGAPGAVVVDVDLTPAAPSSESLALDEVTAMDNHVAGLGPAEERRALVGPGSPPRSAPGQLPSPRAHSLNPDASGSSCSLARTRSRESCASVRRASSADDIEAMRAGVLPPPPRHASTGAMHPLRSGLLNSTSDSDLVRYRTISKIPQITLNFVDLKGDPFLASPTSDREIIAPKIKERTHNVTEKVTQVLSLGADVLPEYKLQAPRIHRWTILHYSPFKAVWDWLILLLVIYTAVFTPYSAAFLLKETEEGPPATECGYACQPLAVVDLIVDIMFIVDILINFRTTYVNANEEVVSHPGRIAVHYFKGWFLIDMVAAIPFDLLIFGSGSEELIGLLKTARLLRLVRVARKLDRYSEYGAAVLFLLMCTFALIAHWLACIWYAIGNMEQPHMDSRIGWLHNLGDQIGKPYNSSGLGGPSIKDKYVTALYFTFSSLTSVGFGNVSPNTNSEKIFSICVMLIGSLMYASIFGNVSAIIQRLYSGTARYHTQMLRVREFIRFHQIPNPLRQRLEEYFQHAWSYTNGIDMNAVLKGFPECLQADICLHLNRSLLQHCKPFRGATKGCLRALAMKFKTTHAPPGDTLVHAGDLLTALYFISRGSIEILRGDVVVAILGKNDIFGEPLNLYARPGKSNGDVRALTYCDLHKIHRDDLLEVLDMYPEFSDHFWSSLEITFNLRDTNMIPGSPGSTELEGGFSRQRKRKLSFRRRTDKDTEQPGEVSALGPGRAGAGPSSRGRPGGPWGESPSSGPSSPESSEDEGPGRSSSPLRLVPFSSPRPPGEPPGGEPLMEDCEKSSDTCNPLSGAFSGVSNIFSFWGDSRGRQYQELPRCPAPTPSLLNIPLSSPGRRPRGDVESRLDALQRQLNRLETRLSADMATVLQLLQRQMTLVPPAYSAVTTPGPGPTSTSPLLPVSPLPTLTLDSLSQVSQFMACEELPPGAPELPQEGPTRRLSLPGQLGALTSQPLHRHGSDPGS

Structure (SMILES) | hERG current change (%, negative = inhibition) at 10uM [%]
O=C(COC(=O)CNC(=O)c1ccc(Cl)cc1Cl)NNC(=O)c1ccccc1 | -4.3
COc1ccc(S(=O)(=O)N2CCCC(C(=O)O)C2)cc1 (stereo not shown) | -0.188
O=C(c1ccc(C(F)(F)F)cc1)N1CCCCC1 | 2.64
O=P(O)(O)c1ccccc1OCCOCCOc1ccccc1P(=O)(O)O | 5.9
C=CCn1c(O)c(C(CC)=Nc2cccc(C(F)(F)F)c2)c(=O)[nH]c1=O | -17
CC(=O)Nc1ccc2c(c1)nc(C)n2Cc1ccccc1 | 10.1
COc1ccc2nc(C)cc(SCC(=O)Nc3c(C)cc(C)cc3C)c2c1 | 4.77
Cc1cccc(NC(=O)c2cc3ccccc3c(=O)o2)n1 | 20.8
O=C(Cn1nnc2ccccc21)c1ccccc1 | -7.57
COc1ccc2nc(N(CCN(C)C)C(=O)c3ccc(C(=O)c4ccccc4)cc3)sc2c1.Cl | -39.2
Cc1cc(-c2ccccc2)nc(Oc2cccc(C(F)(F)F)c2)c1S(C)(=O)=O | 1.13
CSc1ccccc1NC(=O)CSc1nnnn1-c1ccccc1SC | -8.55
Cc1ccc(/C=C/c2ccc3cccc(O)c3n2)s1 | 25.6
CC(C)CC(=O)Nc1cccc(-c2nc3ccccc3[nH]2)c1 | -16.5
Cc1ccc(Oc2ccc(S(=O)(=O)Nc3ccc(C(=O)O)cc3)cc2)cc1 | 3.04
COc1ccc(CCn2c(N)cc(=O)[nH]c2=O)cc1OC | 9.78
Cc1csc(NC(=O)CCCNC(=O)c2ccc(Cl)cc2)n1 | -23.6
O=C(CNC(=O)c1ccco1)OCC(=O)c1ccc2ccccc2c1 | -1.28
Clc1cccc(Cl)c1C1Nc2cccc3cccc(c23)N1 | 6.69
Cl.c1cc2n(c1)-c1c(ccc3c1OCO3)CNC2c1ccc2c(c1)OCO2 (stereo not shown) | -19.2
Cc1ccc(C2=NN(C(=O)CNCCO)C(c3cccs3)C2)cc1 (stereo not shown) | -14.8
N#C/C(=C\c1cccnc1)c1ccc(Br)cc1 | -5.44

Structure (SMILES) | hERG current change (%, negative = inhibition) at 10uM [%]
CCOC(=O)c1cc(CC)sc1/N=C/C1=C(O)CCCC1=O | -26.2
COc1ccc(CCC(=O)Nc2cc3c4c(c2)CC(=O)N4CCC3)cc1 | -19.1
Cc1nc(CCNC(=O)CC2C(=O)NCCN2CC(C)(C)C)nc2c1CCC2 (stereo not shown) | 2.61
Cn1c(SCC(=O)NNC(=O)c2ccc(Cl)cc2)nnc1-c1cccnc1 | 17.2
COC(=O)[C@@H](NC(=O)CCc1nnc(-c2ccsc2)o1)C(C)C | 3.86
Cc1oc(-c2cccs2)nc1CN1CCC(c2ccccc2)CC1 | -66.5
CC(=O)N[C@H]1[C@H]([C@H](O)[C@H](O)CO)OC(C(=O)O)=C[C@@H]1O | 3.96
Cc1cc(NC(=O)C(C)SCC(=O)Nc2ccccc2OC(F)F)no1 (stereo not shown) | -6.62
Cc1cc(C)cc(N(C(=O)CNC(=O)c2ccco2)C(C(=O)NC2CCCCC2)c2ccncc2)c1 (stereo not shown) | -10
O=C1N=C(N2C=CC(=C3C=CNC=C3)C=C2)/C(=C/N=NC(=O)c2ccccc2O)S1 | 5.08
COc1ccccc1-c1cnn2c(NCCc3ccccc3)cc(C)nc12 | 18.5
Cc1noc(C)c1CSCC(=O)Oc1ccc(N(C)S(=O)(=O)c2ccccc2)cc1 | -3.47
CCS(=O)(=O)n1nc(-c2ccc(OC)cc2)nc1N | 11.6
COc1ccc(NC(=O)Cn2nc(C(F)(F)F)c3c2CCCC3)c(OC)c1 | 16.8
Cc1nn2c(=S)[nH]nc2[nH]c1=O | 20.9
CC(=O)CC(=O)C1C(=O)N(C)C(=O)N(C)C1=O | 17.5
O=C(Nc1cc([N+](=O)[O-])ccc1N1CCOCC1)c1ccco1 | -25.6
O=C1CCC(=O)N1CN(Cc1ccco1)CN1C(=O)CCC1=O | 8.44
CC(C)(Oc1ccc(Cl)cc1)C(=O)NCCCn1ccnc1 | -21.2
S=c1nc[nH]c2c1sc1nc(-c3ccccc3)c3c(c12)CCCC3 | 27.9
CC(C)[C@H](NC(=O)N1CCn2c1nc1ccccc12)C(=O)N1CCCCC1 | 1.33
COc1ccccc1Nc1c2ccccc2nc2ccccc12 | -71

Structure (SMILES) | hERG current change (%, negative = inhibition) at 10uM [%]
OCC1(Cc2ccc(F)cc2F)CCCN(CCCc2ccccc2)C1 (stereo not shown) | -82.9
O=C(COc1ccc(Cl)cc1Cl)Nc1nc2n(n1)C(c1ccccc1)CC(=O)N2 (stereo not shown) | -4.02
COc1cccc(C(=O)Nc2nnc(S(=O)(=O)N3CCCC3)s2)c1 | 12.6
CC1=C(C(=O)OCCOC(C)C)C(c2cc3c(cc2Br)OCO3)C2=C(CCCC2=O)N1 (stereo not shown) | -20.2
O=C(Nc1cccc(C(F)(F)F)c1)C1CCCCC1 | -5.61
O=C1CSC(c2cn(-c3ccccc3)nc2-c2ccccc2)N1Cc1ccco1 (stereo not shown) | -19
CCn1c(Cc2ccccc2)nnc1SCC(=O)Nc1ccc(S(N)(=O)=O)cc1 | 2.13
COc1cccc(CN2CCN(CCc3ccccc3)C(CCO)C2)c1OC (stereo not shown) | -34.8
O=C(CCCCCn1c(=O)[nH]c2ccsc2c1=O)NCc1ccc(F)cc1 | 2.96
NNC(=O)CCN1CCN(Cc2ccccc2)CC1 | 17
Cc1ccc(S(=O)(=O)N(Cc2cc3ccccc3[nH]c2=O)CC2CCCO2)cc1 (stereo not shown) | 10.5
O=C(Nc1ccc2c(c1)OCO2)C1CC(c2ccc(Cl)cc2)=NO1 (stereo not shown) | 2.27
O=C(CN1C(=O)C2CCCCC2C1=O)OCc1nnc(-c2ccccc2)o1 (stereo not shown) | 13.4
CCOC(=O)C1CCCN(C(=O)CNC(=O)Cn2ccc3ccccc3c2=O)C1 (stereo not shown) | -11
COc1ccccc1N/C(N)=N/c1nc(CSc2nc3ccccc3s2)cc(=O)[nH]1 | -1.08
COC(=O)c1cnn(-c2cc(Oc3cccc(C)c3)ncn2)c1N | 1.04
Cc1cc(Br)cc(Br)c1OCC(=O)NNC(=O)CCC(=O)NCc1ccccc1 | 18.1
COc1ccccc1NS(=O)(=O)c1cc(N)ccc1N1CCCCC1 | -1.36
CCN(CC)S(=O)(=O)c1cccc(-c2nnc(SCC(=O)c3cc(C)n(C)c3C)o2)c1 | -25.5
Cc1ccc(/C=C/c2ccc(=O)n(Cc3ccccc3Cl)n2)cc1 | 18.6
CCCc1cc(C(=O)Nc2ccn(Cc3ccc(C)cc3)n2)no1 | -6.47
COc1ccc(/C=N/NC(=O)Nc2cccc3nsnc23)cc1OC | 4.47

Structure (SMILES) | hERG current change (%, negative = inhibition) at 10uM [%]
COc1ccccc1NC(=O)c1ccccc1S(=O)(=O)c1ccc([N+](=O)[O-])cc1 | -2.21
CCCc1cc(=O)[nH]c(SCC(=O)N2CCCc3ccccc32)n1 | 0.491
COc1cc(/C=N/Nc2ccc(F)cc2F)cc(OC)c1OC | -5.55
N#CNC(=Nc1ccccc1F)SCc1ccc(C(=O)O)cc1 | 3.01
C=CCOc1ccc(C2C(C(=O)c3ccco3)=C(O)C(=O)N2c2nnc(C)s2)cc1 (stereo not shown) | 20.7
c1ccc2c(CSCCc3ccncc3)cccc2c1 | -17.6
COCCN1Cc2cccc(C(=O)NC(C)CCc3ccco3)c2C1=O (stereo not shown) | -10.8
CCc1c(C(=O)Nc2ncn(Cc3cccc(C)c3)n2)csc1C | -37.8
CCC(C)c1ccc(NC(=O)COc2c(F)c(F)c(C(F)(F)F)c(F)c2F)cc1 (stereo not shown) | -57.4
Cc1nn(C)c(C)c1CS(=O)(=O)c1ccccc1 | 7.61
Cc1ccccc1C(=O)c1cccn1CC(=O)NCc1ccco1 | -0.496
Cn1cc(-c2nnnn2-c2cccc(C(F)(F)F)c2)c(C(F)(F)F)n1 | -8
Cc1cnc(NC(=O)COc2ccc3c(c2)CCC3)s1 | 17.3
NC(=O)CC(NC(=O)c1ccc(Br)cc1)c1ccc(N2CCC(Br)CC2)c([N+](=O)[O-])c1 (stereo not shown) | 1.28
O=C1NC(Cc2ccccc2)c2nc3cc(F)ccc3c(=O)n2-c2ccc(Cl)cc21 (stereo not shown) | 5.57
COc1cc(NC(=O)C(c2ccccc2)c2ccccc2)c(C(=O)O)cc1OC | 16.7
CCn1c(C)[n+](CCCS(=O)(=O)[O-])c2cc(Cl)c(Cl)cc21 | 23.3
Cc1ccc(CSCC(=O)Nc2ccc(N3CCOCC3)cc2N2CCOCC2)cc1 | -4.65
O=C(COc1ccc(S(=O)(=O)NC2CCCCC2)cc1Cl)NCc1ccc2c(c1)OCO2 | 7.69
O=C(CSc1ncnc2c1oc1ccccc12)N1CCN(c2ccccc2)CC1 | -4.27
CN(C)c1ccc(/C=C2\NC(=S)N(Cc3ccccc3)C2=O)cc1 | -0.668
COc1cccc(NC(=O)C2CCCN2S(=O)(=O)c2ccc3c(c2)n(C)c(=O)c(=O)n3C)c1 (stereo not shown) | 5.57
